# Data from patent US20240050583A1, “PROTEIN-DRUG CONJUGATE AND SITE-SPECIFIC CONJUGATING METHOD” (HARBOUR BIOMED (SHANGHAI) CO., LTD, priority 2020, published 2024).
# B1: PR004433-PROTAC (conjugate)
# heavy: EVQLVETGGGLIQPGGSLRLSCAASGFTVSDSYMTWVRQAPGKGLEWVSVIFSGGRTYYSDSVKGRFTISRDNAKNTLYLQMNSLRAEDTALYYCARRNYDDTRGTDVFDIWGQGTMVTVSS[not shown - human IgG1 Fc]
# B2: PR006031: PR004433 variant, linker peptide Hinge3_5, SEQ ID NO: 106 (antibody)
# heavy: EVQLVETGGGLIQPGGSLRLSCAASGFTVSDSYMTWVRQAPGKGLEWVSVIFSGGRTYYSDSVKGRFTISRDNAKNTLYLQMNSLRAEDTALYYCARRNYDDTRGTDVFDIWGQGTMVTVSSEPKSCQPR[not shown - human IgG1 Fc]
# B3: PR006320: PR004433 variant, linker peptide Hinge10_5, SEQ ID NO: 128 (protein)
# chain: EVQLVETGGGLIQPGGSLRLSCAASGFTVSDSYMTWVRQAPGKGLEWVSVIFSGGRTYYSDSVKGRFTISRDNAKNTLYLQMNSLRAEDTALYYCARRNYDDTRGTDVFDIWGQGTMVTVSSEPKSCSVGRFGSMLE[not shown - human IgG1 Fc]
# modifications: PR006320 chain
# B4: PR006468-ADC (conjugate)
# heavy: EVQLVETGGGLIQPGGSLRLSCAASGFTVSDSYMTWVRQAPGKGLEWVSVIFSGGRTYYSDSVKGRFTISRDNAKNTLYLQMNSLRAEDTALYYCARRNYDDTRGTDVFDIWGQGTMVTVSSEPRVPITQNPCPPLKE[not shown - human IgG1 Fc with changes]
# Key:
# [1] = Molecular weight and coupling product components (DAR) by LC-MS; settings: for Average DAR: coupling product with mc-vc-PAB-MMAE, without HIC purification
# Source text: In this example, liquid chromatography-mass spectrometry (LC-MS) was used to analyze the protein sample for molecular weight. Those skilled in the art can use different models of liquid chromatography (LC) and mass spectrometer (MS) to establish similar analytical methods according to the technical instructions and through experimental exploration. Only representative methods are listed in this example.
# In certain specific embodiments, determination of the molecular weight of a protein sample required desaccharification on the sample to remove modifications such as saccharide chains, for example, the sample was processed with glycosidase PNGase F (NEB, #P0705L) at 37° C. for at least 4 h. For example, in all examples of the present invention, when the molecular weight of protein samples was determined, unless otherwise emphasized, the protein samples to be tested were subjected to desaccharification by the glycosidase PNGase F.
# In certain specific embodiments, determination of the reduced molecular weight of a protein sample required reduction on the sample, for example, the sample was processed with […] dithiothreitol (DTT) at 37° C. for 10 min. For example, in all examples of the present invention, the samples after reduction were called reduced samples, and the samples without reduction were called non-reduced samples.
# Buffer A was 0.1% formic acid FA dissolved in water, and buffer B was 0.1% formic acid FA dissolved in acetonitrile. Injection: about 1 μg; flow rate: 0.3 mL/min; and operation temperature: 80° C. When reduced samples were tested, buffer A and buffer B were mixed within 12 min to form a linear gradient: using 10-60% B for the first 8 min and 80% B for the last 4 min. When non-reduced samples were tested, buffer A and buffer B were mixed within 9 min to form a linear gradient: using 15-60% B for the first 6 min and 80% B for the last 3 min.
# Buffer A was 0.1% formic acid FA dissolved in water, and buffer B was 0.1% formic acid FA dissolved in acetonitrile. Injection: about 10 μL; flow rate: 0.2-0.5 mL/min; and operation temperature: 80° C. The detection wavelength was 214 nm.
# In certain specific embodiments, the model of a mass spectrometer used was AB Sceix X500B, and the operating mode thereof was TOF-MS; when reduced samples were tested, a scanning range was 600-4000 m/z; when non-reduced samples were tested, a scanning range was 900-6000 m/z. Original mass spectrums were deconvolved by Sceix OS software to obtain molecular weight maps.
# In certain other specific embodiments, the model of a mass spectrometer used was Waters Xevo G2-XS Q-TOF, and a molecular weight scanning range thereof was 500-4000 Da. Original mass spectrums were deconvolved by Water MaxEnt or Agilent MassHunter BioConfirm software.
# In multiple specific embodiments of the present application, the combination set of different LC and MS conditions was used to achieve LC-MS combination for determining the molecular weight of protein samples. For example, in 0 and 0, the combination of conditions used was (chromatography column: ACQUITY UPLC Protein BEH C4; LC instrument: Waters Acquity UPLC; MS instrument: Waters Xevo G2-XS Q-TOF).
# [2] = biological target: T1, NCI-H929 cells highly expressing human BCMA (Homo sapiens, UniProt Q02223); assay: FACS binding to NCI-H929 cells; settings: flow cytometry FACS
# T1 construct: tumor cells NCI-H929 (ATCC, CRL-9068) highly expressing human BCMA; host or cells: NCI-H929
# T1 sequence (Q02223 1-184): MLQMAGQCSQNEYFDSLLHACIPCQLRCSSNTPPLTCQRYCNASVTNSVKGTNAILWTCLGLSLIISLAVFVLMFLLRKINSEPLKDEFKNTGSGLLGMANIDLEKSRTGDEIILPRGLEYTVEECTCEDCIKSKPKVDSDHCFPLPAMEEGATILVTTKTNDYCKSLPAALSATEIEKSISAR
# Procedure: Specifically, the cells were digested and resuspended in a DMEM complete medium, and the cell density was adjusted to 1×10^6 cells/mL. The cells were seeded in a 96-well V-bottom plate (Corning, #3894) at 100 μL/well, followed by the addition of test antibodies diluted in a 3-fold gradient at a concentration that was 2 times the final concentration, each at 100 μL/well. The cells were incubated at 4° C. for 1 h away from light. Thereafter, the cells in each well were rinsed twice with 100 μL of pre-cooled PBS, and centrifuged at 500 g at 4° C. for 5 min, and then the supernatant was discarded. Thereafter, a fluorescent secondary antibody (Alexa Fluor 488-conjugated AffiniPure Goat Anti-Human IgG, Fcγ Fragment Specific, Jackson ImmunoResearch Inc., #109-545-098, diluted in a 1:500 ratio) was added at 100 μL/well, and the plate was incubated at 4° C. for 30 min away from light. The cells in each well were then rinsed twice with 100 μL of pre-cooled PBS and centrifuged at 500 g at 4° C. for 5 min, and then the supernatant was discarded. Finally, the cells in each well were resuspended in 200 μL of pre-cooled PBS. Fluorescence signal values were read using a BD FACS CANTOII flow cytometer, and the data were processed and analyzed using FlowJo v10 (FlowJo, LLC) software.
# This example further utilized the method described in 0 to study the binding ability of the HCAb antibody PR004433 and a variant molecule thereof to NCI-H929 cells (ATCC, CRL-9068) highly expressing human BCMA.
# [3] = Protein purity and polymers by SEC-HPLC; settings: purified antigen-binding protein; PR004433 from CHO, variants from HEK293
# Procedure: In this example, analytical size-exclusion chromatography (SEC) was used to analyze the protein sample for purity and polymer form. An analytical chromatography column TSKgel G3000SWxl (Tosoh Bioscience, #08541, 5 μm, 7.8 mm×30 cm) was connected to a high performance liquid chromatography HPLC (Agilent Technologies, Agilent 1260 Infinity II) and equilibrated with a PBS buffer at room temperature for at least 1 h. A proper amount of the protein sample (at least 10 μg) was filtered through a 0.22 μm filter membrane and then injected into the system, and an HPLC program was set: the sample was passed through the chromatography column with PBS buffer at a flow rate of 1.0 mL/min for a maximum of 25 min. The detection wavelength was 280 nm. Operation was performed at room temperature. After being recorded, the chromatogram was integrated using ChemStation software and relevant data were calculated. An analysis was generated, with the retention time of the components with different molecular sizes in the sample reported.
# [4] = Melting temperature (Tm1) of proteins by DSF; format: physicochemical; settings: minimum melting temperature
# Procedure: Differential scanning fluorimetry (DSF) is a commonly used high-throughput method for determining the thermostability of proteins. In this method, changes in the fluorescence intensity of the dye that binds to unfolded protein molecules were monitored using a real-time quantitative fluorescence PCR instrument to reflect the denaturation process of the protein and thus to reflect the thermostability of the protein. In this example, the melting temperature (Tm) of a protein molecule was measured by DSF. 10 μg of protein was added to a 96-well PCR plate (Thermo, #AB-0700/W), followed by the addition of 2 μL of 100× diluted dye SYPRO™ (Invitrogen, #2008138), and then the mixture in each well was brought to a final volume of 40 μL by adding buffer. […] The FRET scanning mode was used and data analysis was performed using Bio-Rad CFX Maestro software to calculate the Tm of the sample.
# The antigen-binding protein derived from PR004433 in Table 0-3 was expressed and purified according to the method described in 0, and the SEC-HPLC method described in 0 was used to analyze the purity and the DSF method described in 0 was used to determine the minimum melting temperature (Tm1). It can be seen that after the hinge region sequence of HCAb PR004433 is replaced with variant sequences of various linker peptides, and Cys6 and Cys2 are separated by at least 3 other amino acids, the variant sequences derived from PR004433 can be effectively expressed, and the expression yield and thermostability Tm1 of the vast majority of variant molecules are not affected.
# NCI-H929 cells = assay: Cytotoxic killing experiment (Example 9.5), NCI-H929; settings: 72 h, CellTiter-Glo; proteins up to 10 nM, mc-vc-PAB-MMAE up to 20 nM
# Procedure: The HEK293T-hBCMA, NCI-H929, HEK293T and SNU-16 cells were seeded in 96-well plates (Perkin Elmer, #6005225) respectively, with the following seeded cell number: 2500 cells/50 μL/well (HEK293T-hBCMA), 5000 cells/50 μL/well (NCI-H929), 2500 cells/50 μL/well (HEK293T), and 5000 cells/50 μL/well (SNU-16). Then, the plates were incubated overnight at 37° C. with 5% CO2. Then, a test sample serially pre-diluted was added at 50 μL/well. PR004433, PR004433-ADC and PR004432-ADC were diluted at a 3-fold concentration gradient from the highest final concentration of 10 nM, and mc-vc-PAB-MMAE was diluted at a 3-fold concentration gradient from the highest final concentration of 20 nM. In addition, a well without the test sample was set as a control well. Thereafter, the plates were incubated at 37° C. with 5% CO2 for 72 h, a CellTiter-Glo cell viability detection reagent (Promega, #G7573) was added, then the plates were incubated at room temperature for at least 10 min to obtain stable luminescence signals, and the luminescence values were detected using a microplate reader. The cell viability was calculated based on the luminescence values by the following formula:
# Cell viability (%)=(A/B)×100%
# In which, A=experimental well (target cells+test sample+medium); B=control well (target cells+medium)
# The data were processed and analyzed by plotting using GraphPad Prism 8 software, and binding curves of the antibodies to target cells, EC50 values and other parameters were obtained through four-parameter nonlinear fitting.
# In this example, the method described in 0 was used to study the specific cell killing activity of antigen-binding proteins PR006468 (including a mouse IgG2c hinge region), PR004433 (including a human IgG1 hinge region) and coupling products PR006468-ADC and PR004433-ADC thereof against tumor cells NCI-H929 (ATCC, CRL-9068) highly expressing human BCMA.
# In this example, the method described in 0 was used to study the specific cell killing activity of PR005744 and a coupling product PR005744-ADC thereof against tumor cells NCI-H929 (ATCC, CRL-9068) highly expressing human BCMA.
# [5] = non-reduced sample, lot CY20210203, before purification
Molecule,"Content of DAR = 2 component [1, 5]","Content of DAR = 4 component [1, 5]",binding ability to NCI-H929 cells [2],SEC-HPLC purity (%) [3],Average DAR ([1]; TCEP 1.5 equivalents),Average DAR ([1]; TCEP 2.0 equivalents),Average DAR ([1]; TCEP 3.0 equivalents),Average DAR ([1]; TCEP 4.0 equivalents),Average DAR ([1]; TCEP 5.0 equivalents),Average DAR ([1]; TCEP 6.0 equivalents),DSF Tm1 (° C.) [4],cytotoxic killing against NCI-H929 cells (NCI-H929 cells)
B1,66.4%,3.5%,can specifically bind,–,–,–,–,–,–,–,–,–
B2,–,–,–,99.05%,1.64,2.12,2.65,3.02,3.41,3.69,54.8 °C,–
B3,–,–,–,97.80%,1.66,1.87,1.99,2.03,2.03,–,53.6 °C,–
B4,–,–,–,–,–,–,–,–,–,–,–,effective and specific cytotoxic killing
